Article PMC4242493
The other results are listed elsewhere or left out. The list includes weakly bound sequences.

These sequences were tested against MaxL homodimer (UniProt P61244) (assay: universal protein-binding microarray (PBM)). Settings: PBS-based mixture, 10 nM His-tagged protein dimer, 2% milk, 200 ng/uL BSA, 50 ng/uL salmon testes DNA, 0.02% TX-100; detection with Alexa 488 anti-His …; high values mean tight binding; most listed sequences are background and not binding sites; double strand, one strand shown.
UniProt P61244, sequence (P61244 whole entry): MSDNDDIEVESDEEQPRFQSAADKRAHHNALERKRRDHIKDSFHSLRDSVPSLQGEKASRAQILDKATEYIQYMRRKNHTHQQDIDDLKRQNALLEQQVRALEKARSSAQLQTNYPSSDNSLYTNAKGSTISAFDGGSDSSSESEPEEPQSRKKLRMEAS
Sequence ACCTAGAA has a binding signal (normalized occupancy) of 0.0705. Sequence ATCGCTCA has a binding signal (normalized occupancy) of 0.0718. For CGCGCGTA, the binding signal (normalized occupancy) was 0.0797. In the case of ACCATGGT, the binding signal (normalized occupancy) was 0.0862. AACCTCTT gave a binding signal (normalized occupancy) of 0.0692. Sequence CTAGAATA has a binding signal (normalized occupancy) of 0.0796. Sequence AGATCAGA has a binding signal (normalized occupancy) of 0.0731. ATCGGTCC was tested, and the binding signal (normalized occupancy) was 0.0713. AAAGTTGC showed a binding signal (normalized occupancy) of 0.0762. ACGTAATC was tested, and the binding signal (normalized occupancy) was 0.086. TGCTACCA gave a binding signal (normalized occupancy) of 0.0792. Work on CGATGTGA yielded a binding signal (normalized occupancy) of 0.0833. For AACTTTAG, the binding signal (normalized occupancy) was 0.0721. CAATTCAC was tested, and the binding signal (normalized occupancy) was 0.0739. With TCGAGCGA the binding signal (normalized occupancy) was 0.0735. For CGCCCCAC, the binding signal (normalized occupancy) was 0.0804. Work on AGATGTAC yielded a binding signal (normalized occupancy) of 0.0766. GAGTCCCA gave a binding signal (normalized occupancy) of 0.0709. For AGGGTTGA, the binding signal (normalized occupancy) was 0.0746. For CCGACCTA, the binding signal (normalized occupancy) was 0.0702. Work on TATGGAAA yielded a binding signal (normalized occupancy) of 0.0788. Work on GTGGGGGA yielded a binding signal (normalized occupancy) of 0.0922. In the case of GCCTATAC, the binding signal (normalized occupancy) was 0.0748. In the case of CATTCATC, the binding signal (normalized occupancy) was 0.0811. Sequence GCGGGCGA has a binding signal (normalized occupancy) of 0.0715. With ACCGTTCC the binding signal (normalized occupancy) was 0.0693. CTGCATGC was tested, and the binding signal (normalized occupancy) was 0.1. In the case of ATATACAG, the binding signal (normalized occupancy) was 0.0826. Work on GTCCCTTA yielded a binding signal (normalized occupancy) of 0.0792. In the case of CCAGGACC, the binding signal (normalized occupancy) was 0.0711. In the case of CGTCGAGA, the binding signal (normalized occupancy) was 0.0693. Sequence ATGGGGTA has a binding signal (normalized occupancy) of 0.0853. For CTCCACAC, the binding signal (normalized occupancy) was 0.0843. In the case of CTCAGGGA, the binding signal (normalized occupancy) was 0.0699. For AAAGACCT, the binding signal (normalized occupancy) was 0.0705. For AAGAATCA, the binding signal (normalized occupancy) was 0.0773. Work on GCGATGGA yielded a binding signal (normalized occupancy) of 0.0705. In the case of CCTGAAAA, the binding signal (normalized occupancy) was 0.0734. In the case of AATGAATA, the binding signal (normalized occupancy) was 0.0826. Work on CAGGCTGG yielded a binding signal (normalized occupancy) of 0.074. AACATGGC was tested, and the binding signal (normalized occupancy) was 0.0896. CCGTATCA was tested, and the binding signal (normalized occupancy) was 0.078. For TCTTGTCA, the binding signal (normalized occupancy) was 0.0763. Sequence AGCTGCGC has a binding signal (normalized occupancy) of 0.0641. ACCCGTCA showed a binding signal (normalized occupancy) of 0.0779. Work on CAAGATCA yielded a binding signal (normalized occupancy) of 0.0787. Sequence ACTCAGCC has a binding signal (normalized occupancy) of 0.074. For AGGGTGCA, the binding signal (normalized occupancy) was 0.0789. CTTACTTC gave a binding signal (normalized occupancy) of 0.0757. In the case of AACGATAT, the binding signal (normalized occupancy) was 0.0816. CCTAGACC was tested, and the binding signal (normalized occupancy) was 0.0776. CAACACAG gave a binding signal (normalized occupancy) of 0.0749. AGGTTAGG showed a binding signal (normalized occupancy) of 0.0789. GTCGGGAA gave a binding signal (normalized occupancy) of 0.0752. AGCCGATG was tested, and the binding signal (normalized occupancy) was 0.0684. ACTACCTG gave a binding signal (normalized occupancy) of 0.0775. In the case of ACGTTTTC, the binding signal (normalized occupancy) was 0.0866. Work on CGTGTCAC yielded a binding signal (normalized occupancy) of 0.0878. AGGGTATA was tested, and the binding signal (normalized occupancy) was 0.0798. In the case of CCTGTAGA, the binding signal (normalized occupancy) was 0.0762. Work on CTTGGGCA yielded a binding signal (normalized occupancy) of 0.0737. For ATTCACTG, the binding signal (normalized occupancy) was 0.0715. TCTGGTCA showed a binding signal (normalized occupancy) of 0.0768. AATCCGTG showed a binding signal (normalized occupancy) of 0.0806. In the case of ACAAATCT, the binding signal (normalized occupancy) was 0.0773. Work on ACTACCAA yielded a binding signal (normalized occupancy) of 0.0694. GCCTGTTA was tested, and the binding signal (normalized occupancy) was 0.0819. In the case of GGACAGTA, the binding signal (normalized occupancy) was 0.0732. CCTCAAGA was tested, and the binding signal (normalized occupancy) was 0.0746. Sequence AATAGATG has a binding signal (normalized occupancy) of 0.0814. With AAACAGGC the binding signal (normalized occupancy) was 0.0748. For GCCTTCTA, the binding signal (normalized occupancy) was 0.0739. Sequence AGTTTTGG has a binding signal (normalized occupancy) of 0.0712. Sequence CACTGGGA has a binding signal (normalized occupancy) of 0.0741. AAAAATTA was tested, and the binding signal (normalized occupancy) was 0.0712. With GAAAACTA the binding signal (normalized occupancy) was 0.0775. Work on CATCAGGG yielded a binding signal (normalized occupancy) of 0.0741. With GGGCCGAC the binding signal (normalized occupancy) was 0.0683. TAATCTGA showed a binding signal (normalized occupancy) of 0.0743. AGCGATAT showed a binding signal (normalized occupancy) of 0.0746. TAATGCGA gave a binding signal (normalized occupancy) of 0.0758. Work on GTGGCCCA yielded a binding signal (normalized occupancy) of 0.0744. CATGGACG gave a binding signal (normalized occupancy) of 0.0831. For CCTGTCCG, the binding signal (normalized occupancy) was 0.0752. Sequence CTATGAAA has a binding signal (normalized occupancy) of 0.0772. Sequence AATATTCG has a binding signal (normalized occupancy) of 0.0729. In the case of CGAACTTA, the binding signal (normalized occupancy) was 0.0707. Work on CGTTGAGA yielded a binding signal (normalized occupancy) of 0.0727. In the case of AAAACGAG, the binding signal (normalized occupancy) was 0.0747. TTAGACAA showed a binding signal (normalized occupancy) of 0.079. For TAGCTAAA, the binding signal (normalized occupancy) was 0.0707. CCAAAAGG gave a binding signal (normalized occupancy) of 0.066. ACGGAAAT showed a binding signal (normalized occupancy) of 0.0724. In the case of CGTATCTA, the binding signal (normalized occupancy) was 0.0778. AAATTCAA showed a binding signal (normalized occupancy) of 0.0737. Sequence GAGAACGA has a binding signal (normalized occupancy) of 0.0782. Sequence GAGTTAAC has a binding signal (normalized occupancy) of 0.0767. Work on AAGCTCAA yielded a binding signal (normalized occupancy) of 0.0689. Work on GAGCGCGA yielded a binding signal (normalized occupancy) of 0.0707. AGGCAACA showed a binding signal (normalized occupancy) of 0.0766. With GTGTGCTA the binding signal (normalized occupancy) was 0.0884. In the case of GCCAACGC, the binding signal (normalized occupancy) was 0.0756. For CTTTATCA, the binding signal (normalized occupancy) was 0.0732. GATGCCCA gave a binding signal (normalized occupancy) of 0.0798. Sequence TCTGGGAA has a binding signal (normalized occupancy) of 0.0706. Sequence CTAACGCC has a binding signal (normalized occupancy) of 0.0758. Sequence CAGCGGGA has a binding signal (normalized occupancy) of 0.0676. In the case of ATTAACAG, the binding signal (normalized occupancy) was 0.077. In the case of CGCGAGCG, the binding signal (normalized occupancy) was 0.073. Work on GCCAGCCA yielded a binding signal (normalized occupancy) of 0.0754.
